Some of the results follow. Cut-off read from the data, not from the text of the source: active = 3.2 or more and inactive = the rest. Most of these values are background signal.
B1: FUBP1_HUMAN_625_YA (peptide)
chain: AARQQAAYAAQTSPQ
B2: GELS_HUMAN_465 (peptide)
chain: VPVDPATYGQFYGGD
B3: G6PD_HUMAN_503 (peptide)
chain: MKRVGFQYEGTYKWV
B4: AGTR1_HUMAN_319 (peptide)
chain: YFLQLLKYIPPKAKS
B5: FUND1_HUMAN_18 (peptide)
chain: YESDDDSYEVLDLTE
B6: FYB_HUMAN_755 (peptide)
chain: CRNEEGKYGYVLRSY
B7: G3P_HUMAN_42 (peptide)
chain: DPFIDLNYMVYMFQY
B8: FNBP1_HUMAN_500 (peptide)
chain: ARRQSGLYDSQNPPT
B9: FUND1_HUMAN_18_YA (peptide)
chain: AESDDDSYEVLDLTE
B10: GELS_HUMAN_409 (peptide)
chain: TDGLGLSYLSSHIAN
B11: FYN_HUMAN_30_YA (peptide)
chain: NQSSGARYGTDPTPQ
B12: AGO2_HUMAN_393 (peptide)
chain: ASFNTDPYVREFGIM
B13: G6PD_HUMAN_503_YA (peptide)
chain: MKRVGFQYEGTAKWV
B14: AKAP3_HUMAN_404 (peptide)
chain: AQDKAESYSLISMKG
B15: FYB_HUMAN_757_YA (peptide)
chain: NEEGKAGYVLRSALA
B16: GAB2_HUMAN_293 (peptide)
chain: ETDNEDVYTFKTPSN
B17: GAB1_HUMAN_406 (peptide)
chain: DASSQDCYDIPRAFP
B18: FYB_HUMAN_595 (peptide)
chain: IEDDQEVYDDVAEQD

Biological target: SHP2 C-SH2 domain E139D
Experiment: enrichment score (SH2-bound / input frequency) (ratio); bacterial display of known human phosphotyrosine sites (pTyr-Var adds point mutants) read by sequencing; higher = stronger binding; tyrosines were phosphorylated by kinases first
Conditions: peptide library: Human pTyr
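Note: displayed peptides selected on beads carrying the immobilized SH2 domain, with library peptides lacking any tyrosine serving as negative controls.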

Binder | enrichment score
B1 | inactive: 0.741
B2 | inactive: 0.582
B3 | inactive: 1.86
B4 | active: 3.34
B5 | inactive: 1.24
B6 | inactive: 1.66
B7 | inactive: 1.78
B8 | inactive: 0.681
B9 | inactive: 1.05
B10 | inactive: 1.06
B11 | inactive: 0.655
B12 | inactive: 0.548
B13 | inactive: 1.1
B14 | inactive: 0.627
B15 | inactive: 0.791
B16 | inactive: 1.16
B17 | inactive: 0.863
B18 | inactive: 1.26

Biological target: SHP2 C-SH2 domain wild-type
Experiment: as above
Conditions: peptide library: Human pTyr

Binder | enrichment score
B1 | inactive: 0.745
B2 | inactive: 0.574
B3 | inactive: 1.69
B4 | active: 3.71
B5 | inactive: 0.961
B6 | inactive: 1.32
B7 | inactive: 1.72
B8 | inactive: 0.699
B9 | inactive: 1.08
B10 | inactive: 0.913
B11 | inactive: 0.544
B12 | inactive: 0.535
B13 | inactive: 0.985
B14 | inactive: 1.58
B15 | inactive: 0.619
B16 | inactive: 0.865
B17 | inactive: 0.814
B18 | inactive: 1.06

Biological target: SHP2 N-SH2 domain L43F
Experiment: as above
Conditions: peptide library: Human pTyr

Binder | enrichment score
B1 | inactive: 0.593
B2 | inactive: 0.664
B3 | inactive: 1.77
B4 | active: 4.54
B5 | inactive: 1.13
B6 | inactive: 1.43
B7 | inactive: 1.62
B8 | inactive: 0.621
B9 | inactive: 0.854
B10 | inactive: 0.91
B11 | inactive: 0.576
B12 | inactive: 0.587
B13 | inactive: 1.16
B14 | inactive: 0.624
B15 | inactive: 0.567
B16 | inactive: 1.03
B17 | inactive: 0.862
B18 | inactive: 1.01

Biological target: SHP2 N-SH2 domain T42A
Experiment: as above
Conditions: peptide library: Human pTyr

Binder | enrichment score
B1 | inactive: 0.718
B2 | inactive: 0.534
B3 | inactive: 1.81
B4 | active: 3.36
B5 | inactive: 1.3
B6 | inactive: 1.42
B7 | inactive: 1.8
B8 | inactive: 0.653
B9 | inactive: 1.22
B10 | inactive: 0.969
B11 | inactive: 0.574
B12 | inactive: 0.466
B13 | inactive: 1.2
B14 | inactive: 0.6
B15 | inactive: 0.576
B16 | inactive: 0.778
B17 | inactive: 0.902
B18 | inactive: 1.56

Biological target: SHP2 N-SH2 domain T52S
Experiment: as above
Conditions: peptide library: Human pTyr

Binder | enrichment score
B1 | inactive: 0.784
B2 | inactive: 0.593
B3 | inactive: 1.7
B4 | active: 4.07
B5 | inactive: 0.905
B6 | inactive: 1.87
B7 | inactive: 2.02
B8 | inactive: 0.697
B9 | inactive: 1.34
B10 | inactive: 1.01
B11 | inactive: 0.608
B12 | inactive: 0.438
B13 | inactive: 1
B14 | inactive: 0.679
B15 | inactive: 0.693
B16 | inactive: 1.04
B17 | inactive: 0.952
B18 | inactive: 2.3

Biological target: SHP2 N-SH2 domain wild-type
Experiment: as above
Conditions: peptide library: Human pTyr

Binder | enrichment score
B1 | inactive: 0.747
B2 | inactive: 0.754
B3 | inactive: 2.09
B4 | active: 5.49
B5 | inactive: 1.41
B6 | inactive: 1.45
B7 | inactive: 2.12
B8 | inactive: 0.62
B9 | inactive: 1.28
B10 | inactive: 1.05
B11 | inactive: 0.824
B12 | inactive: 0.651
B13 | inactive: 1.36
B14 | inactive: 0.515
B15 | inactive: 0.649
B16 | inactive: 1.27
B17 | inactive: 0.924
B18 | inactive: 1.42
